Test results published in PubChem BioAssay AID1645887 (National Center for Advancing Translational Sciences (NCATS), 2021).
Values joined by “and” are separate entries in the source; they are usually repeats but may differ in a detail not shown here. Equal entries are not always repeated. Hit rate of the full screen: of about 16,000 compounds, about 40 (0.2%) were called active. Roughly 1% stayed inconclusive and do not appear here. Calls come from the whole dose curve; as a rule, active = well fitted activation curve with a large enough effect; inconclusive = small, poorly fitted or top-dose-only effect, or another doubt; inactive = no such curve, though single readings can be large or run the other way. The list shows a part of the results. Residues, ends and D or L forms follow the SMILES beside them. *: point of attachment. Boc = CC(C)(C)OC(=O)*

Each compound was assayed against Rap guanine nucleotide exchange factor 4 (Homo sapiens) (UniProt Q8WZA2) (assay: Validation qHTS for agonist of cAMP-regulated guanine nucleotide exchange factor 4 (EPAC2)). Conditions: EPAC2 Rap1B BODIPY-GDP exchange, fluorescence; activation: active compounds read high.
Chain of UniProt Q8WZA2 (Q8WZA2 whole entry, looked up): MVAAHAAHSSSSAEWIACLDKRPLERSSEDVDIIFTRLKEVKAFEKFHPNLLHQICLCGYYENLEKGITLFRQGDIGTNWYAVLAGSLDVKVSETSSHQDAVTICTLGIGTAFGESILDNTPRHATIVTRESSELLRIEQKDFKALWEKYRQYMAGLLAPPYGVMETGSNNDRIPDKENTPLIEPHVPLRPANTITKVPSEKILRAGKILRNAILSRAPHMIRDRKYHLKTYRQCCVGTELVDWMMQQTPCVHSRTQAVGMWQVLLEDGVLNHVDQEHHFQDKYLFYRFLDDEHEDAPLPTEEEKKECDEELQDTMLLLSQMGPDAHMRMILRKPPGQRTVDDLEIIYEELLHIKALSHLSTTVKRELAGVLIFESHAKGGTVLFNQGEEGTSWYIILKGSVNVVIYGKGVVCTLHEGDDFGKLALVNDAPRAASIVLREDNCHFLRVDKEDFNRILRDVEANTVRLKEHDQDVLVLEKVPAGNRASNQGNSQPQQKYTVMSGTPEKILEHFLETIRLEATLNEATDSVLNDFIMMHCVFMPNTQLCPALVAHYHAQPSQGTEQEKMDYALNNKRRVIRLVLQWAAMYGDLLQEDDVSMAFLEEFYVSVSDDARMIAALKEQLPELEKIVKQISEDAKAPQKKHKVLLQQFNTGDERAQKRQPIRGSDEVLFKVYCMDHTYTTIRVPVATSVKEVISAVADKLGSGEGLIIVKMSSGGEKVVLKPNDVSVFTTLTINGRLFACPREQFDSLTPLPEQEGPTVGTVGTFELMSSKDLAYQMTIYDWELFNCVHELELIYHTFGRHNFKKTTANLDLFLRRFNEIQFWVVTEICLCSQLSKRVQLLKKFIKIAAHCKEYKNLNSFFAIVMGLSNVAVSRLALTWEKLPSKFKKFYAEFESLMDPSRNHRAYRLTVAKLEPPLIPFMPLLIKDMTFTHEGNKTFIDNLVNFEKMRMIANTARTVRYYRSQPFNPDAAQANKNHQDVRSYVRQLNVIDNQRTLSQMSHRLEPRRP
How it was run: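 Signal normalized against 6.5 mM cAMP as agonist control. Mix of EPAC2 (100 nM), RAP1B-BODIPY-GDP (250 nM) and GDP (50 uM) was read kinetically at 480/540 nm, every 5 min over 30 min, after 5 min room-temperature incubation with compound.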
% is set by controls: 0 for no effect and ±100 for the full control effect.
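Note: exchange makes BODIPY-GDP fluorescence drop when released from Rap1B; series mostly up to about 150 µM.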

activation, inactive:
CC(=O)NS(=O)(=O)c1ccc(N)cc1 -11% and -3.61%
CCc1cccc(N(C)C(N)=Nc2cccc3ccccc23)c1 -6.71% and -38.4%
O=c1[nH]c2ccccc2n1CCCN1CCN(C(c2ccccc2)c2ccccc2)CC1 0.154%
Nc1nc(Cl)nc2c1ncn2[C@@H]1O[C@H](CO)[C@@H](O)[C@H]1O 1.37% and -3.39% and -17.2%
COc1ccc(NC(=O)N2CC3(CCN(C(=O)c4ccc(OC)cc4)CC3)C2)cc1 -3.88%
N#C[C@H](Cc1ccc(O)cc1)c1ccc(O)cc1 -12.7%
COc1cc(COc2cc(N)c(Cl)cc2C(=O)CCC2CCN(CCNS(C)(=O)=O)CC2)cc(OC)c1 -2.12% and -6.11%
FC(F)(F)c1ccccc1-c1nc(NC2CCNCC2)c2ccccc2n1 -3.57%
NC1(C(=O)O)C[C@@H](C(=O)O)[C@H](C(=O)O)C1 -9.46% and -9.83% and -5.59%
CC(C)[C@H](CO)Nc1nc(Nc2ccc(C(=O)O)c(Cl)c2)c2ncn(C(C)C)c2n1 -14.8%
CC(=O)N1CCC2(CCCN(c3ccccn3)C2)CC1 -2.19%
CCC[C@H](N[C@@H](C)C(=O)N1[C@@H]2CCCC[C@H]2C[C@H]1C(=O)O)C(=O)OCC -11.1%
COc1cccc(-c2cncnc2NCc2cnc(C)cn2)c1 1.05%
COc1ccc(C(=O)c2ccccc2)c(O)c1O -8.65%
Nc1nc2ncc(CNc3ccc(C(=O)N[C@@H](CCC(=O)O)C(=O)O)cc3)nc2c(=O)[nH]1 -12.7% and -16.6%
COCC(=O)Nc1cc(C(=O)N2CCC(c3ccccc3)CC2)cc2nc(-c3ccccc3)n(C)c12 5.45%
Cc1cccc(CNC(=O)c2c3n(c(C)cc2=O)-c2ccccc2SC(c2ccsc2)C3)n1 (stereo not drawn) -6.43%
COCCn1c(=O)cnc2cnc(Nc3ccccc3)nc21 -1.9%
CC(N)C(O)c1cccc(O)c1 (stereo not drawn) -10.5%
NO -34.1%
Cc1cc(C)c(S(=O)(=O)Nc2ccccc2C(F)(F)F)c(C)c1 -4.13%
COCCC1CCCCN1Cc1nc(N2CCCC2)c2cc(OC)c(OC)cc2n1 (stereo not drawn) -11.9%
CCCCCCc1c(C[C@H](N)C(=O)O)o[nH]c1=O 0.124% and 0.533%
CN(C)C(=O)c1ccc(-c2nc(N3CCOCC3)c3ccccc3n2)cc1 -5.48%
c1cc2c(cc1C1CCCCC1)c1c3n2CCN[C@H]3CCC1 -1.43%
O=C(c1n[nH]c2c1CCCC2)N1CCC(n2c(C3CCCO3)nc3ccccc32)CC1 (stereo not drawn) -5.47%
CCN(CC)CCNC(C(=O)OCCC(C)C)c1ccccc1 (stereo not drawn) -13.1%
C[C@@H]1C[C@H]2[C@@H]3CCC4=CC(=O)C=C[C@]4(C)[C@@]3(F)[C@@H](O)C[C@]2(C)[C@@]1(O)C(=O)COP(=O)(O)O 5.26%
Cc1c(C(=O)N(C)Cc2cccc3ncccc23)cnn1-c1nccc(-c2ccccc2F)n1 -4.6%
CC(=O)c1ccccc1-c1ccc2c(c1)CC(CNC(=O)C[C@@H]1C[C@@H](C)NC(=S)N1)O2 (stereo partly drawn) 4.55%
N[C@H](C(=O)O)[C@@H]1[C@@H](C(=O)O)C1(F)F -9.67% and 11.5%
CCCN(C/C=C/I)C1CCc2cccc(O)c2C1 (stereo not drawn) -6.44%
FC(F)(F)c1ccccc1-c1ccc2ncnc(N3CCOCC3)c2c1 -24.3%
COc1cccc(Cn2c(=O)c(C)nc3cnc(Nc4ccccc4)nc32)c1 -3.42%
CC(C)CC(=O)N1C/C=C\C[C@@H](c2ccc(Cl)cc2)N(Cc2ccc(Cl)cc2)C(=O)[C@@H]1Cc1ccccc1 -30.2%
CCNc1ncc2ncc(=O)n(C)c2n1 -8.51%
Cc1ccc(S(=O)(=O)NC(=O)N[C@@H](C)Cc2ccccc2)cc1 -8.11%
Nc1cc(Cl)c(NC2=NCCN2)c(Cl)c1 5.46% and 6.4%
C[C@@]12CCC[C@H]1[C@@H]1CC[C@H]3C[C@@H](O)CC[C@]3(C)[C@H]1CC2 -20.4%
Cc1ccccc1-c1nc(Nc2ccncc2)c2ccccc2n1 -32.7%
CCC1CN(CCC(=O)N2CCCN(C(=O)c3ccco3)CC2)Cc2cc(OC)ccc2O1 (stereo not drawn) -13.9%
COc1ccc2c(c1)CCC1C2CC[C@@]2(C)C(O)CCC12 (stereo partly drawn) -2.91%
CC(C)OC(=O)OCOP(=O)(CO[C@H](C)Cn1cnc2c(N)ncnc21)OCOC(=O)OC(C)C 0.775%
CN1CCC(OC(=O)C(Oc2ccc(Cl)cc2)Oc2ccc(Cl)cc2)CC1 -28.6%
CN(C)C(=O)/N=N/C(=O)N(C)C -24.2%
CNC(=O)Oc1ccc2c(c1)C1(C)CCN(C)C1N2C (stereo not drawn) 1.23%
C=C1C[C@@]23CC[C@H]4[C@@](C)(CCC[C@@]4(C)C(=O)OC4OC(CO)C(O)C(O)C4O)[C@@H]2CC[C@]1(OC1OC(CO)C(O)C(O)C1OC1OC(CO)C(O)C(O)C1O)C3 (stereo partly drawn) -3.46%
FC(F)(F)c1cccc(-c2cn[nH]c2C2CCCN(Cc3cccn3-c3ccccn3)C2)c1 (stereo not drawn) -5.25%
COc1cccc(C(=O)CC2c3c(c(Br)c4c(c3OC)OCO4)CCN2C)c1 (stereo not drawn) -0.832%
c1cc2cc(-c3c(-c4ccc5c(c4)OCO5)noc3-c3ccsc3)ccc2[nH]1 0.357%
Cn1cnc([N+](=O)[O-])c1Sc1ncnc2nc[nH]c12 -9.01% [middle of 4 runs]
O=C(c1ccco1)N1CCC[C@@]2(CCN(c3ncccn3)C2)C1 -7.48%
COc1ccc(C(=O)N2CCC[C@@]3(CCN(C(=O)NC(C)C)C3)C2)cc1 3.97%
CSc1nc(C(=O)NCc2nc(-c3cccc(NC(=O)c4ccc(C)s4)c3)oc2C)cs1 -8.51%
CC(CCCCC(=O)Nc1ccc(C(F)(F)F)cc1)NCCc1cnc[nH]1 (stereo not drawn) 9.69%
c1nc(NCCN2CCOCC2)c2cc(-c3ccoc3)ccc2n1 -7.45%
Cc1ccc(C)c(C(=O)N2CCC(C3(c4ccccn4)NC(=O)N(CC4CCCO4)C3=O)CC2)c1 (stereo not drawn) 0.355%
CS(=O)(=O)N1CCC2(CCN(c3ccccc3)CC2)CC1 -16.4%
ClC(Cl)Cl -3.62%
CC[C@@H]1[C@H]2CCCC(=O)N3CC[C@@H](C[C@@H]1OC(=O)Nc1ccccc1)[C@@H]23 -32.6%
Cc1ncc(C[n+]2csc(CCOP(=O)(O)OP(=O)(O)O)c2C)c(N)n1 -22.6%
Cn1c(=O)c(-c2ccccc2)nc2cnc(N3CCOCC3)nc21 4.52%
CC[C@H](CO)Nc1nc(NCc2ccccc2)c2ncn(C(C)C)c2n1 -7% and -9.11%
Cc1ccc(C(=O)Nc2cccc(-c3nc(CNC(=O)c4cccc(N(C)C)c4)c(C)o3)c2)s1 -7.22%
O=P(O)(O)OC(Cn1cncn1)(Cn1cncn1)c1ccc(F)cc1F -0.561%
CC(=O)OC(C)OC(=O)C(C)c1ccc(-c2ccccc2)c(F)c1 (stereo not drawn) -10.8% and -27.4%
O=C(N/N=C\c1ccccc1O)c1ccccc1O -25.6%
CN(C)C(=O)c1ccc(-c2nccc(NCc3cccs3)n2)cc1 3.93%
COc1ncc2nc(-c3ccccc3)c(=O)n(C3CC3)c2n1 -15.9%
CCN1CCCC1CNC(=O)c1cnn(-c2nccc(-c3ccc(C)o3)n2)c1C1CC1 (stereo not drawn) -8.9%
CS(=O)(=O)Nc1cccc(-c2nc(NCc3ccccc3)c3ccccc3n2)c1 2.87%
COCc1c(C(=O)N2CCN(C3CCCC3)CC2)cnn1-c1ncc2c(n1)-c1ccccc1CCC2 -5.9%
C[C@@H]1NC(=O)OC1c1ccco1 (stereo partly drawn) -4.61%
O=C(O)c1ccccc1C(=O)Nc1ccc(S(=O)(=O)Nc2nccs2)cc1 7.03%
CS(=O)(=O)N1CCC2(CCCN(Cc3ccccc3)C2)CC1 -5.39%
CC(C)[C@H](NC(=O)CNC(=O)OC(C)(C)C)C(=O)N[C@H](C=O)C(C)C (Boc-Gly-Val-Val-aldehyde) 0.769%
O=C(c1ccncc1)N1CCC[C@@]2(CCN(c3ccccc3)C2)C1 -15.3%
CN(c1nccc(=O)[nH]1)C1CCN(c2nc3ccccc3n2Cc2ccc(F)cc2)CC1 2.01%
Cc1cnc(-n2ncc(C(=O)NCc3ccncc3)c2-c2cccs2)nc1-c1ccc(F)cc1 -1.42%
CC(C)=CCCC(C)C1CC[C@@]2(C)C3=C(CC[C@@]12C)C1(C)CCC(O)C(C)(C)C1CC3 (stereo partly drawn) 0.897%
COc1cc(C=C2CCC/C(=C\c3ccc(O)c(OC)c3)C2=O)ccc1O 2.37%
Cn1ccnc1C1CCCCN1C(=O)CN1Cc2ccccc2OC(c2ccccc2F)C1 (stereo not drawn) -10.7%
[N-]=[N+]=N[C@@H](CCN1CC[C@H](O)CCC1=O)c1ccccc1 -13.9%
